The whole screen tested about 310,000 compounds, of which about 2,200 (0.71%) showed an effect of 50% or more. Effects have a minus sign here. This is one part of the list.

For this assay, the target named is human ether-à-go-go-related gene (hERG) potassium channel (human, UniProt Q12809). Description: primary screen, population patch clamp on CHO cells stably expressing hERG.
Chain of human ether-à-go-go-related gene (hERG) potassium channel (Q12809 whole entry, looked up): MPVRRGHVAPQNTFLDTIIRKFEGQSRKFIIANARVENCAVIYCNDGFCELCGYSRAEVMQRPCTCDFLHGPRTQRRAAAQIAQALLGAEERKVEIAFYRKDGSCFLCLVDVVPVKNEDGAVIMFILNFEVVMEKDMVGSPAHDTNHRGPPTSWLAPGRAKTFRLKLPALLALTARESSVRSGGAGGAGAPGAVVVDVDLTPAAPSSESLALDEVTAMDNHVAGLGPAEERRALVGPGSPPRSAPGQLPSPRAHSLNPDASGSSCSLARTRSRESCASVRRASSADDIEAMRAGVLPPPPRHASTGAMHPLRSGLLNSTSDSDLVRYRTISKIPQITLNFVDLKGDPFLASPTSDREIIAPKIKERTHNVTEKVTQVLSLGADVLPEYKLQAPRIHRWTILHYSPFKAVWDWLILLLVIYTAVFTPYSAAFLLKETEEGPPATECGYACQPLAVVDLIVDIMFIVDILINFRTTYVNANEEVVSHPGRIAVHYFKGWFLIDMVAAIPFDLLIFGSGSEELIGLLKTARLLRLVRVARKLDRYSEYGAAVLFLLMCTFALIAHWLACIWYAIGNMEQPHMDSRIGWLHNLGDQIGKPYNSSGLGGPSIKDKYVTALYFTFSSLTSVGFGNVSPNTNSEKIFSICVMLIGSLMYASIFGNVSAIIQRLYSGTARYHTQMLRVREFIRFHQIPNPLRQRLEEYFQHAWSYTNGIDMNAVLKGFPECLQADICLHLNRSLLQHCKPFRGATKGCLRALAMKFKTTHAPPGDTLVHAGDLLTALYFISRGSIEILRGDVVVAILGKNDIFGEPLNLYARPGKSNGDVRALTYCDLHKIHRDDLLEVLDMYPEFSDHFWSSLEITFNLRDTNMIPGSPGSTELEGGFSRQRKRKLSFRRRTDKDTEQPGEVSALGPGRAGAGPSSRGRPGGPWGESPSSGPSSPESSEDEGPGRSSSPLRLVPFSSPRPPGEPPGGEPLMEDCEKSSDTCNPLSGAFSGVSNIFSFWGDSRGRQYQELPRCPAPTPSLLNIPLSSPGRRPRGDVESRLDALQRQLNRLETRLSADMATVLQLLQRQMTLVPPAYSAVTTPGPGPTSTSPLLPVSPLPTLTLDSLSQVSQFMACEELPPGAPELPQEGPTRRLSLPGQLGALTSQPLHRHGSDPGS
In the case of `CC(=O)N(Cc1ccccn1)Cc1ccco1`, the “hERG current change (%, negative = inhibition) at 1uM” value is given as 5.11%. The figure for `O=C(Nc1nc2ccc3ccccc3c2s1)c1ccc(N2CCCCC2)c([N+](=O)[O-])c1` is 7.17%; for `COc1ccc(NC(=O)c2csc(Cc3ccccc3)n2)cc1` it is 1.65%; for `Cc1ccc(C2CC(C(F)(F)F)n3nc(C(=O)NCCN4CCOCC4)cc3N2)cc1` (centres unmarked) it is 11.3%.

As for `Cc1cc(C)nc(N2CCC(CNC(=O)CCc3ccccc3)CC2)n1`, the “hERG current change (%, negative = inhibition) at 1uM” value turned out to be 20.4%. The figure for `COc1ccc(NC(=S)Nc2cccc3ccccc23)cc1OC` is 14.9%.

`O=C(CSc1nnc2ccccn12)NNC(=O)c1ccc(Cl)cc1`: the “hERG current change (%, negative = inhibition) at 1uM” value worked out at 1.82%. Regarding `NC(=O)c1cnn(-c2ccc3ccccc3c2)c1N`, the “hERG current change (%, negative = inhibition) at 1uM” value is recorded as 1.36%. The figure for `O=C(Nc1nnc(SCc2ccccc2)s1)c1cccs1` is 13.2%; for `Cc1nn(C2CCS(=O)(=O)C2)c(C)c1CN(C)C(=O)c1ccccc1` (centres unmarked) it is 7.94%; for `COc1ccc(O)c(C(=O)c2cnc3c(c2)c(C)nn3C)c1` it is 18.9%.

`O=C(CSc1nnc(COc2ccccc2)o1)Nc1ccc(F)cc1`: the “hERG current change (%, negative = inhibition) at 1uM” value is recorded as 16.4%. For `CC(=O)c1cccc(NC(=O)Cc2cccs2)c1`, the “hERG current change (%, negative = inhibition) at 1uM” value stood at 5.07%.

As to `COc1cccc(OC)c1C(=O)N1CCN(C(=O)c2ccc(-c3ccccc3)cc2)CC1`, the “hERG current change (%, negative = inhibition) at 1uM” value stood at 10.7%.

`CN(C(=O)CSc1ccncc1)C1CCCN(Cc2ccccc2F)C1` (centres unmarked): the “hERG current change (%, negative = inhibition) at 1uM” value was 12.1%. The figure for `COc1cccc(N/C(N)=N/c2nc(CSc3ccccn3)cc(=O)[nH]2)c1` is 8.56%. The figure for `C=CCOC(=O)Nc1c(C(=O)OC)[nH]c2ccccc12` is 10.5%. Under `N#C/C(=C/c1ccccc1)C(=O)NCc1ccccc1` stands 17.7%. In the case of `CNS(=O)(=O)c1cccc(C(=O)Nc2cccnc2)c1`, the “hERG current change (%, negative = inhibition) at 1uM” value stood at 0.636%. Under `CCOC(=O)N1CCN(S(=O)(=O)c2ccc(OCC(=O)OC)c(C)c2)CC1` stands -16.4%. The figure for `CCC(=O)c1ccc(N2CCN(C(=O)c3ccc(Br)cc3)CC2)c(F)c1` is 6.41%; for `CS(=O)(=O)Nc1ccc2[nH]c(=O)[nH]c2c1` it is 8.28%; for `CCCc1c(C(=O)Nc2cc(C)on2)cnn1-c1ccccc1` it is 11.3%.

In the case of `C=CCn1cc([N+](=O)[O-])nc1C`, the “hERG current change (%, negative = inhibition) at 1uM” value is recorded as 12.4%. Turning to `O=C(N/N=C/c1ccccc1Br)c1cccc(S(=O)(=O)N2CCOCC2)c1`, the “hERG current change (%, negative = inhibition) at 1uM” value amounted to 2.68%. Under `CCc1nc(NCCCn2ccnc2)c2oc3ccccc3c2n1.Cl` stands -20.2%; under `CCN1C(=O)[C@@H]2[C@H](C1=O)[C@@H]1C(=O)Nc3ccccc3C(=O)N1[C@@H]2c1cccc(Cl)c1`, -5.85%; under `O=C(CSc1ccc2nnc(-c3ccccn3)n2n1)NCC1CCCO1` (centres unmarked), 2.83%. The figure for `CCOc1ccc(C(=O)NCCN(C)C)cc1` is -1.24%; for `CCN1CCN(c2nc(N)c([N+](=O)[O-])c(Nc3ccc(C)c(C)c3)n2)CC1` it is -2.52%; for `Cc1ccc(N(C(=O)CNC(=O)c2ccco2)C(C(=O)NC2CCCC2)c2cccnc2)c(C)c1` (centres unmarked) it is 14.7%. Under `COc1cc(OC)cc(C(=O)Nc2nnc(NC(=S)Nc3ccccc3)s2)c1` stands 7.45%; under `COc1ccc(C2CC(=O)C(C=NCCN3CCN(C(=S)Nc4ccccc4)CC3)=C(O)C2)cc1` (centres unmarked), 11.3%. In the case of `Cc1ccc(N(CC(=O)Nc2cccc(N(C)S(C)(=O)=O)c2)S(C)(=O)=O)cc1`, the “hERG current change (%, negative = inhibition) at 1uM” value was 7.4%. Take `O=C(O)C(=O)O.c1ccc(-c2ccccc2OCCCCN2CCCCCC2)cc1`: the “hERG current change (%, negative = inhibition) at 1uM” value is recorded as -48.2%. Take `COC(=O)C/C=C/[C@@H](C)[C@@H](/C=N/OC[C@H]1O[C@H](c2ccccc2)C=C[C@@H]1Oc1ccc(OC)cc1)OC`: the “hERG current change (%, negative = inhibition) at 1uM” value is listed as 8.99%.

For `CCOC(=O)c1c(C2CC2)csc1NC(=O)COC(=O)c1ccc[n+]([O-])c1`, the “hERG current change (%, negative = inhibition) at 1uM” value amounted to 11.1%. Under `CCOP(=O)(OCC)C(O)c1ccc(N(C)C)cc1` (centres unmarked) stands 8.66%. Take `COC(=O)c1ccc(NC(=S)NC2CCCCC2C)cc1` (centres unmarked): the “hERG current change (%, negative = inhibition) at 1uM” value was determined as 8.46%. `CCOc1ccccc1C1c2cc3c(cc2OC(C)(N2CCCC2)C1C)OCO3` (centres unmarked): the “hERG current change (%, negative = inhibition) at 1uM” value is -5.47%. For `Cc1cc2oc(=O)cc(CN3CCN(S(=O)(=O)c4cccs4)CC3)c2cc1C(C)C`, the “hERG current change (%, negative = inhibition) at 1uM” value stood at 4.78%.

Consider `COc1ccc(C)cc1S(=O)(=O)N1CCC(C(=O)N2CCOCC2)CC1`, for which the “hERG current change (%, negative = inhibition) at 1uM” value is given as -3.13%.

For the compound `COC(=O)CC1=C(C)C(=O)CC2C(C)(C)CCCC12C` (centres unmarked), the “hERG current change (%, negative = inhibition) at 1uM” value was found to be 9.52%. Under `O=c1[nH]cnc2c1ncn2[C@H]1CC[C@@H](CO)O1` stands 11.9%.

(Values after paper PMC4336329 (PLoS ONE, 2015).)
